The other results are listed elsewhere or left out.
Columns and labels:
Test in all cases: glycan array binding signal (z-score within array); higher = stronger binding
Settings in all cases: glycan notation: IUPAC condensed, linker removed
[1] = target: Man(a1-3)[Man(a1-6)]Man(a1-6)[Man(a1-3)]Man(b1-4)GlcNAc(b1-4)GlcNAc
How it was run: (§1)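 Negative Z-scores can be read as non-binding. The Z-score is calculated within each array and then averaged across arrays of one protein sequence at different concentrations or buffers and across linkers. Arrays, 3228 in all, were curated from the Consortium for Functional Glycomics database and kept only where the protein sequence was available.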

[2] = target: Man(a1-3)[Man(a1-6)]Man(b1-4)GlcNAc(b1-4)GlcNAc
How it was run: as §1

[3] = target: Man(a1-3)[Man(a1-6)]Man(b1-4)GlcNAc(b1-4)[Fuc(a1-6)]GlcNAc
How it was run: as §1

Man(a1-6)Man = target: Man(a1-6)Man
How it was run: as §1

Man(b1-4)GlcNAc = target: Man(b1-4)GlcNAc
How it was run: as §1

MurNAc(b1-4)GlcNAc = target: MurNAc(b1-4)GlcNAc
How it was run: as §1

Neu5Ac(a2-3)Gal = target: Neu5Ac(a2-3)Gal
How it was run: as §1

[4] = target: Neu5Ac(a2-3)Gal(b1-3)GalNAc
How it was run: as §1

[5] = target: Neu5Ac(a2-3)Gal(b1-3)GalNAc(b1-3)Gal(a1-4)Gal(b1-4)Glc
How it was run: as §1

[6] = target: Neu5Ac(a2-3)Gal(b1-3)GalNAc(b1-4)[Neu5Ac(a2-3)]Gal(b1-4)Glc
How it was run: as §1

[7] = target: Neu5Ac(a2-3)Gal(b1-3)GalNAc(b1-4)[Neu5Ac(a2-8)Neu5Ac(a2-3)]Gal(b1-4)Glc
How it was run: as §1

[8] = target: Neu5Ac(a2-3)Gal(b1-3)GalNAc6S
How it was run: as §1

[9] = target: Neu5Ac(a2-3)Gal(b1-3)GlcNAc
How it was run: as §1

[10] = target: Neu5Ac(a2-3)Gal(b1-3)GlcNAc(b1-2)Man
How it was run: as §1

[11] = target: Neu5Ac(a2-3)Gal(b1-3)GlcNAc(b1-2)Man(a1-3)[GlcNAc(b1-4)][Neu5Ac(a2-3)Gal(b1-3)GlcNAc(b1-2)Man(a1-6)]Man(b1-4)GlcNAc(b1-4)GlcNAc
How it was run: as §1

[12] = target: Neu5Ac(a2-3)Gal(b1-3)GlcNAc(b1-2)Man(a1-3)[Neu5Ac(a2-3)Gal(b1-3)GlcNAc(b1-2)Man(a1-6)]Man(b1-4)GlcNAc(b1-4)GlcNAc
How it was run: as §1

[13] = target: Neu5Ac(a2-3)Gal(b1-3)GlcNAc(b1-3)Gal(b1-3)GlcNAc
How it was run: as §1

[14] = target: Neu5Ac(a2-3)Gal(b1-3)GlcNAc(b1-3)Gal(b1-4)GlcNAc
How it was run: as §1

[15] = target: Neu5Ac(a2-3)Gal(b1-3)GlcNAc(b1-3)GalNAc
How it was run: as §1

[16] = target: Neu5Ac(a2-3)Gal(b1-3)GlcNAc(b1-4)Gal(b1-4)Glc
How it was run: as §1

[17] = target: Neu5Ac(a2-3)Gal(b1-3)GlcNAc(b1-6)GalNAc
How it was run: as §1

[18] = target: Neu5Ac(a2-3)Gal(b1-3)GlcNAc6S
How it was run: as §1

[19] = target: Neu5Ac(a2-3)Gal(b1-3)[Fuc(a1-4)]GlcNAc
How it was run: as §1

[20] = target: Neu5Ac(a2-3)Gal(b1-3)[Fuc(a1-4)]GlcNAc(b1-3)Gal(b1-3)[Fuc(a1-4)]GlcNAc
How it was run: as §1

[21] = target: Neu5Ac(a2-3)Gal(b1-3)[Fuc(a1-4)]GlcNAc(b1-3)Gal(b1-4)[Fuc(a1-3)]GlcNAc
How it was run: as §1

[22] = target: Neu5Ac(a2-3)Gal(b1-3)[GlcNAc(b1-6)]GalNAc
How it was run: as §1

[23] = target: Neu5Ac(a2-3)Gal(b1-3)[Neu5Ac(a2-3)Gal(b1-4)]GlcNAc
How it was run: as §1

[24] = target: Neu5Ac(a2-3)Gal(b1-3)[Neu5Ac(a2-6)]GalNAc
How it was run: as §1

[25] = target: Neu5Ac(a2-3)Gal(b1-3)[Neu5Ac(a2-6)]GlcNAc(b1-3)[Fuc(a1-3)[Gal(b1-4)]GlcNAc(b1-6)]Gal(b1-4)Glc
How it was run: as §1

[26] = target: Neu5Ac(a2-3)Gal(b1-3)]Neu5Ac(a2-3)Gal(b1-4)]GlcNAc
How it was run: as §1

Neu5Ac(a2-3)Gal(b1-4)Glc = target: Neu5Ac(a2-3)Gal(b1-4)Glc
How it was run: as §1

[27] = target: Neu5Ac(a2-3)Gal(b1-4)GlcNAc
How it was run: as §1

[28] = target: Neu5Ac(a2-3)Gal(b1-4)GlcNAc(b1-2)Man
How it was run: as §1

[29] = target: Neu5Ac(a2-3)Gal(b1-4)GlcNAc(b1-2)Man(a1-3)[GlcNAc(b1-2)Man(b1-4)GlcNAc(b1-2)Man(a1-6)]Man(b1-4)GlcNAc(b1-4)GlcNAc
How it was run: as §1

[30] = target: Neu5Ac(a2-3)Gal(b1-4)GlcNAc(b1-2)Man(a1-3)[GlcNAc(b1-4)][Neu5Ac(a2-3)Gal(b1-4)GlcNAc(b1-2)Man(a1-6)]Man(b1-4)GlcNAc(b1-4)GlcNAc
How it was run: as §1

[31] = target: Neu5Ac(a2-3)Gal(b1-4)GlcNAc(b1-2)Man(a1-3)[Neu5Ac(a2-3)Gal(b1-4)GlcNAc(b1-2)Man(a1-6)]Man(b1-4)GlcNAc(b1-4)GlcNAc
How it was run: as §1

B1: Siglec-7-SA-PE-180 (Homo sapiens), Q9Y286 (protein)
chain: MLLLLLLPLLWGRERVEGQKSNRKDYSLTMQSSVTVQEGMCVHVRCSFSYPVDSQTDSDPVHGYWFRAGNDISWKAPVATNNPAWAVQEETRDRFHLLGDPQTKNCTLSIRDARMSDAGRYFFRMEKGNIKWNYKYDQLSVNVTALTHRPNILIPGTLESGCFQNLTCSVPWACEQGTPPMISWMGTSVSPLHPSTTRSSVLTLIPQPQHHGTSLTCQVTLPGAGVTTNRTIQLNVSYPPQNLTVTVFQGEGTASTALGNSSSLSVLEGQSLRLVCAVDSNPPARLSWTWRSLTLYPSQPSNPLVLELQVHLGDEGEFTCRAQNSLGSQHVSLNLSLQQEYTGKMRPVSGVLLGAVGGAGATALVFLSFCVIFIVVRSCRKKSARPAADVGDIGMKDANTIRGSASQGNLTESWADDNPRHHGLAAHSSGEEREIQYAPLSFHKGEPQDLSGQEATNNEYSEIKIPK
With B1 the “glycan array binding signal (z-score)” value [1] was -0.43, the “glycan array binding signal (z-score)” value [2] was -0.249 and the “glycan array binding signal (z-score)” value [3] was -0.249. For the same binder, the “glycan array binding signal (z-score)” value (Man(a1-6)Man) was -0.087, the “glycan array binding signal (z-score)” value (Man(b1-4)GlcNAc) was -0.016 and the “glycan array binding signal (z-score)” value (MurNAc(b1-4)GlcNAc) was -0.382. The “glycan array binding signal (z-score)” value (Neu5Ac(a2-3)Gal) was 2.25, the “glycan array binding signal (z-score)” value [4] was 0.25 and the “glycan array binding signal (z-score)” value [5] was -0.233. For the same binder, the “glycan array binding signal (z-score)” value [6] was -0.071, the “glycan array binding signal (z-score)” value [7] was -0.182 and the “glycan array binding signal (z-score)” value [8] was 1.38. For the same binder, the “glycan array binding signal (z-score)” value [9] was 0.568, the “glycan array binding signal (z-score)” value [10] was -0.114 and the “glycan array binding signal (z-score)” value [11] was -0.111. For the same binder, the “glycan array binding signal (z-score)” value [12] was -0.422, the “glycan array binding signal (z-score)” value [13] was -0.265 and the “glycan array binding signal (z-score)” value [14] was 0.114. For the same binder, the “glycan array binding signal (z-score)” value [15] was -0.235, the “glycan array binding signal (z-score)” value [16] was -0.223 and the “glycan array binding signal (z-score)” value [17] was 0.325. The “glycan array binding signal (z-score)” value [18] was 0.216, the “glycan array binding signal (z-score)” value [19] was 0.387 and the “glycan array binding signal (z-score)” value [20] was -0.193. The “glycan array binding signal (z-score)” value [21] was -0.413, the “glycan array binding signal (z-score)” value [22] was -0.676 and the “glycan array binding signal (z-score)” value [23] was -0.42. The “glycan array binding signal (z-score)” value [24] was -0.049, the “glycan array binding signal (z-score)” value [25] was -0.096 and the “glycan array binding signal (z-score)” value [26] was -0.1. The “glycan array binding signal (z-score)” value (Neu5Ac(a2-3)Gal(b1-4)Glc) was 0.175, the “glycan array binding signal (z-score)” value [27] was 0.212 and the “glycan array binding signal (z-score)” value [28] was 0.263. For the same binder, the “glycan array binding signal (z-score)” value [29] was -0.013, the “glycan array binding signal (z-score)” value [30] was -0.201 and the “glycan array binding signal (z-score)” value [31] was -0.21.

From the supplement of paper PMC8728848
